Data: publication PMC3879318
These are yes or no findings as the source states them, for the method shown. For part of these data: In cells and extracts the contact can be indirect. Some binding calls cover weakened binding; strength is not graded here. For part of these data: Sequences can lack the tags named with a protein.

The chains behind the UniProt entries cited, without tags or fusion partners.
UniProt P02340: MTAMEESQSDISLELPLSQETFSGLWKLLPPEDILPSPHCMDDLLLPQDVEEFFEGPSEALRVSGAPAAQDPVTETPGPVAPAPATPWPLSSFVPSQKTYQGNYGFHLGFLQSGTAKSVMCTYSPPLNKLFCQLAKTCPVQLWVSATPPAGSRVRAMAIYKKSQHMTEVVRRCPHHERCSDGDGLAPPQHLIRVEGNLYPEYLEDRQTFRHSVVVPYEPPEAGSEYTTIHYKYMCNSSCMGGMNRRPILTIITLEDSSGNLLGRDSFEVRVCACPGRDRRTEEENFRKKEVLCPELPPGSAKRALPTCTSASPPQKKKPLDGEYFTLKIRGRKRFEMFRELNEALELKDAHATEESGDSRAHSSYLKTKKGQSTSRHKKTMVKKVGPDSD
UniProt P17918: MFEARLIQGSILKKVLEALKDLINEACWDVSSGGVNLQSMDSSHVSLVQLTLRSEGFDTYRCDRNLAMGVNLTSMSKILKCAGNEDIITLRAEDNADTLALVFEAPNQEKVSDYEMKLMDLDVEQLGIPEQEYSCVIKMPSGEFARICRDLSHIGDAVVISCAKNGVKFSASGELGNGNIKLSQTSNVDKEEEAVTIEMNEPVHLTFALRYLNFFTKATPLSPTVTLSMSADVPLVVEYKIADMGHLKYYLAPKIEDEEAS

T1: necdin (UniProt P25233)
T1 sequence: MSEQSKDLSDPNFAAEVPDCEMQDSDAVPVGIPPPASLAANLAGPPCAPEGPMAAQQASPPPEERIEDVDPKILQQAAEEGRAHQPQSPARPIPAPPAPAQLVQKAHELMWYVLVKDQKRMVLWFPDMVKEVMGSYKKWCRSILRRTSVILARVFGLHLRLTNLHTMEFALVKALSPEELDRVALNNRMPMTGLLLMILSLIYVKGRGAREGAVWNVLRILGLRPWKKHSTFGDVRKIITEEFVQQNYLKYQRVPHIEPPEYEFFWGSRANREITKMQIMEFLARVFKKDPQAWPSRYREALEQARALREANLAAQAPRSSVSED

T2: necdin (endogenous, primary NPCs) (mouse (endogenous in primary NPCs)) (UniProt P25233)
T2 sequence: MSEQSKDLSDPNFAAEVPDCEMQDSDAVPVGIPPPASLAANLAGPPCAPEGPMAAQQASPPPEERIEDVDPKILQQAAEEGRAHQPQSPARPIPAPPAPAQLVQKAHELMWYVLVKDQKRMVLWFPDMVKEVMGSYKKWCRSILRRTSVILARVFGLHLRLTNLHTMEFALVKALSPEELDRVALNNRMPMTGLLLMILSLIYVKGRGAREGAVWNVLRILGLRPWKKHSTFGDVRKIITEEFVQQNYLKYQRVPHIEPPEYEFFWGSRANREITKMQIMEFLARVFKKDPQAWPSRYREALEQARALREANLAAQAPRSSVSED

T3: 6×Myc-Bmi1 full-length (mouse) (UniProt P25916)
T3 sequence: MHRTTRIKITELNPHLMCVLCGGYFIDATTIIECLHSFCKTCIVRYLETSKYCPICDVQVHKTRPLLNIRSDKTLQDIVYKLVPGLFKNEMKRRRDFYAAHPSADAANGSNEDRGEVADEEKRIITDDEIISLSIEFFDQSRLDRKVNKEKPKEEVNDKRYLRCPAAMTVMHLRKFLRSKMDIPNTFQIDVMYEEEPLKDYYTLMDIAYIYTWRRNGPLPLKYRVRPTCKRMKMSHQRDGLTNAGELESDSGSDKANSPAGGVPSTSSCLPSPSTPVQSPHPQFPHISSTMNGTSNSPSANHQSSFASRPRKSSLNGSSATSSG

T4: GST-Bmi1 full-length (mouse) (UniProt P25916)
T4 sequence: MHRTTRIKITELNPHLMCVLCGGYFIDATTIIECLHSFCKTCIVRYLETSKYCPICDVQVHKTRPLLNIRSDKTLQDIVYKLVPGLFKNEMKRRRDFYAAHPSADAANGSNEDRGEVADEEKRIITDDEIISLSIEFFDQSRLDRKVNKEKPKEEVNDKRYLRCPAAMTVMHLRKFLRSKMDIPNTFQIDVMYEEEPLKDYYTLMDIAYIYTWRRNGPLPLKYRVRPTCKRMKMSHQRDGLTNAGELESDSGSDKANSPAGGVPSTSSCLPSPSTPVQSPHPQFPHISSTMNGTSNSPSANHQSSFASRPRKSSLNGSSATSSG


Experiments:
necdin = biological target: T1, necdin; assay: co-IP; HEK293A cells co-transfected with necdin and Myc-tagged proteins, harvested 24 hrs after transfection; cell extracts (200 µg) incubated at 4°C for 2 hrs with anti-necdin (NC243) and anti-Myc (9E10) antibodies in 10 mM Tris-HCl pH 8.0, 150 mM NaCl, 1 mM EDTA, 1% NP-40, 10% glycerol; protein A-Sepharose; Western blotting
[1] = biological target: T2, necdin (endogenous, primary NPCs) (mouse (endogenous in primary NPCs)); assay: co-IP; endogenous proteins; lysates of primary NPCs (500 µg protein) from E14.5 wild-type and necdin-null mice incubated with rabbit anti-necdin IgG or preimmune IgG; Dynabeads protein A; Western blotting
[2] = biological target: T3, 6×Myc-Bmi1 full-length (mouse); assay: co-IP; HEK293A cells co-transfected with necdin and Myc-tagged proteins, harvested 24 hrs after transfection; cell extracts (200 µg) incubated at 4°C for 2 hrs with anti-necdin (NC243) and anti-Myc (9E10) antibodies in 10 mM Tris-HCl pH 8.0, 150 mM NaCl, 1 mM EDTA, 1% NP-40, 10% glycerol; protein A-Sepharose; Western blotting
[3] = biological target: T4, GST-Bmi1 full-length (mouse); assay: pull-down; GST-Bmi1 fusions immobilized on glutathione Sepharose 4B incubated with His-tagged necdin (200 ng) at 4°C for 2 hrs in 1 ml of 50 mM Tris buffer pH 8.0, 300 mM KCl, 2 mM 2-mercaptoethanol; bound His-necdin detected by Western blotting; both purified

Molecule	binding (necdin)	binding [1]	further results
6×Myc-Bmi1 full-length (protein, UniProt P25916 1-324) MHRTTRIKITELNPHLMCVLCGGYFIDATTIIECLHSFCKTCIVRYLETSKYCPICDVQVHKTRPLLNIRSDKTLQDIVYKLVPGLFKNEMKRRRDFYAAHPSADAANGSNEDRGEVADEEKRIITDDEIISLSIEFFDQSRLDRKVNKEKPKEEVNDKRYLRCPAAMTVMHLRKFLRSKMDIPNTFQIDVMYEEEPLKDYYTLMDIAYIYTWRRNGPLPLKYRVRPTCKRMKMSHQRDGLTNAGELESDSGSDKANSPAGGVPSTSSCLPSPSTPVQSPHPQFPHISSTMNGTSNSPSANHQSSFASRPRKSSLNGSSATSSG	binds	–	–
Bmi1 (endogenous, primary NPCs) (protein, UniProt P25916 1-324) MHRTTRIKITELNPHLMCVLCGGYFIDATTIIECLHSFCKTCIVRYLETSKYCPICDVQVHKTRPLLNIRSDKTLQDIVYKLVPGLFKNEMKRRRDFYAAHPSADAANGSNEDRGEVADEEKRIITDDEIISLSIEFFDQSRLDRKVNKEKPKEEVNDKRYLRCPAAMTVMHLRKFLRSKMDIPNTFQIDVMYEEEPLKDYYTLMDIAYIYTWRRNGPLPLKYRVRPTCKRMKMSHQRDGLTNAGELESDSGSDKANSPAGGVPSTSSCLPSPSTPVQSPHPQFPHISSTMNGTSNSPSANHQSSFASRPRKSSLNGSSATSSG	–	binds	–
necdin (protein, UniProt P25233 1-325) MSEQSKDLSDPNFAAEVPDCEMQDSDAVPVGIPPPASLAANLAGPPCAPEGPMAAQQASPPPEERIEDVDPKILQQAAEEGRAHQPQSPARPIPAPPAPAQLVQKAHELMWYVLVKDQKRMVLWFPDMVKEVMGSYKKWCRSILRRTSVILARVFGLHLRLTNLHTMEFALVKALSPEELDRVALNNRMPMTGLLLMILSLIYVKGRGAREGAVWNVLRILGLRPWKKHSTFGDVRKIITEEFVQQNYLKYQRVPHIEPPEYEFFWGSRANREITKMQIMEFLARVFKKDPQAWPSRYREALEQARALREANLAAQAPRSSVSED	–	–	binding [2]: binds
His-tagged necdin (protein, UniProt P25233 1-325) MSEQSKDLSDPNFAAEVPDCEMQDSDAVPVGIPPPASLAANLAGPPCAPEGPMAAQQASPPPEERIEDVDPKILQQAAEEGRAHQPQSPARPIPAPPAPAQLVQKAHELMWYVLVKDQKRMVLWFPDMVKEVMGSYKKWCRSILRRTSVILARVFGLHLRLTNLHTMEFALVKALSPEELDRVALNNRMPMTGLLLMILSLIYVKGRGAREGAVWNVLRILGLRPWKKHSTFGDVRKIITEEFVQQNYLKYQRVPHIEPPEYEFFWGSRANREITKMQIMEFLARVFKKDPQAWPSRYREALEQARALREANLAAQAPRSSVSED	–	–	binding [3]: binds

Second part, led by results:

binding (necdin)	binding [1]	Molecule	further results
binds	–	p53 (positive control) (from UniProt P02340 1-390)	–
–	no binding	proliferating cell nuclear antigen (PCNA) (from UniProt P17918 1-261)	–
